Assay results as given in PubChem BioAssay AID686978 (National Center for Advancing Translational Sciences (NCATS), 2013).
About 64,000 (15%) of roughly 420,000 compounds were called active. The shares of active, inactive and inconclusive entries below differ from those in the screen. Calls follow the shape of the dose curve; as a rule, active = well fitted inhibition curve with a large enough effect; inconclusive = small, poorly fitted or top-dose-only effect; inactive = flat fitted curve, though single readings scatter. Potencies of inconclusive entries are left out as doubtful fits.

Assay: qHTS for Inhibitors of human tyrosyl-DNA phosphodiesterase 1 (TDP1): qHTS in cells in absence of CPT; also: nearly all actives have a fitted effect of over 55% in size
Details: DT40 Tdp1-/- hTDP1 cells, no CPT, ATP luminescence, 48 h; activity change, negative = growth inhibition: at 46.2 µM (top of the series) unless noted
How it was run: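 DT40 Tdp1-/-;hTDP1 cells, no CPT (DMSO vehicle only), 400 cells/well; compounds pin-transferred; ≥48 hr, 37 °C; CellTiter-Glo 30 min RT dark, luminescence read.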
% is scaled to controls: 0 for no effect and ±100 for the full control effect; potency is read from the fitted curve at half-maximal effect; tags tell the direction and shape of the fitted curve.

Row | SMILES | Potency | activity change, negative = growth inhibition
1 | CCC1(c2ccccc2)NC(=O)N(CC(=O)N(C)CC(=O)Nc2cccc(OC)c2)C1=O (centres undefined) | inconclusive [inhibitor, single point] | 
2 | Cc1ccc(S(=O)(=O)N2CCC(C(=O)N(C)C3CCS(=O)(=O)C3)CC2)cc1 (centres undefined) | inconclusive [inhibitor, single point] | 
3 | CCN(CC)C(=O)Oc1ccc2oc(=O)cc(-c3cc4cccc(OC)c4o3)c2c1 |  | inactive: -27.3%
4 | CCN(C(=O)CN1CCN(c2ccc(OC)cc2)CC1)c1c(N)n(Cc2ccccc2)c(=O)[nH]c1=O | inconclusive [inhibitor, single point] | 
5 | O=C(OCc1c(-c2ccccc2)ncc2ccccc12)c1ccccc1C(F)(F)F | inconclusive [inhibitor, partial curve, poor fit] | 
6 | CC1CCN(S(=O)(=O)c2ccc(NC(=O)c3ccccc3F)cc2)CC1 | inconclusive [inhibitor, single point] | 
7 | CC(=O)c1sc(NC(=O)c2ccc(Cl)cc2)nc1C |  | inactive: -7.88%
8 | O=C(CC(Nc1cccc(Cl)c1Cl)C(=O)OCC(=O)c1cccs1)c1ccccc1 (centres undefined) |  | inactive: -0.478%
9 | Oc1cccc(/C=N/N2CCCCC2)c1O | inconclusive [inhibitor, single point] | 
10 | CCCc1cc(=O)n2[nH]c(C)cc2n1 | inconclusive [inhibitor, full curve, poor fit] | 
11 | O=C(CCN1C(=O)c2ccccc2C1=O)Nc1ccncc1 |  | inactive: -9.9%
12 | Fc1ccc(-c2csc3[n+]2CCS3)cc1 |  | inactive: -4.5%
13 | O=C(COC(=O)c1ccc(F)cc1F)Nc1ccc2[nH]c(=O)[nH]c2c1 |  | inactive: -19.2%
14 | O=C(c1ccc2c(c1)OCO2)C1CCCN(Cc2ccc(OC(F)F)cc2)C1 (centres undefined) | inconclusive [inhibitor, single point] | 
15 | COCCn1nnnc1C(c1cc2cc(C)ccc2[nH]c1=O)N1CCc2ccccc21 (centres undefined) | inconclusive [inhibitor, single point] | 
16 | Cc1cccc(C(=O)Nc2oc(-c3ccccc3)cc2C#N)c1 | inconclusive [inhibitor, single point] | 
17 | COc1ccc(S(=O)(=O)c2c(Nc3ccc(C)cc3)sc(C(=O)c3ccc(C)cc3)c2N)cc1 | inconclusive [inhibitor, partial curve] | 
18 | CC(C)OC(=O)c1ccc(Cn2nnc3ccccc3c2=O)cc1 |  | inactive: -15.1%
19 | Cc1ccc(-n2nc(C)c3c(C)cc(=O)n(CC(=O)Nc4ccc(Br)cc4F)c32)cc1 |  | inactive: -10.2%
20 | CCOc1ccc2nc(-c3ccccc3)[nH]c2c1 | active: 20.6 µM | 
21 | COC(=O)c1ccc(COc2ccccc2/C=N/NS(=O)(=O)c2ccccc2)cc1 | inconclusive [inhibitor, single point] | 
22 | FC(F)(F)c1cccc(N2CCN(c3ccc4nnc(-c5ccccc5)n4n3)CC2)c1 | inconclusive [inhibitor, single point] | 

Row | SMILES | Potency | activity change, negative = growth inhibition
23 | Cc1cc(=O)n2[nH]c(NCc3ccc(F)cc3)nc2n1 | inconclusive [inhibitor, single point] | 
24 | Cn1c(CCN2CCCCC2)nc2cc(NS(=O)(=O)c3ccc(F)cc3)ccc21 | inconclusive [inhibitor, partial curve] | 
25 | COc1ccc(OCCN2CCC(C(=O)NC(c3ccc(Cl)cc3)c3ncccc3C)CC2)cc1 (centres undefined) | inconclusive [inhibitor, single point] | 
26 | CN(C)CC(C)(O)c1ccc2c(c1)CN(Cc1cn(C)c3ccccc13)CCO2 (centres undefined) | active: 20.6 µM | 
27 | COc1ccc(NC(=O)c2sc3nc4c(cc3c2N)CN(C(C)C)CC4)c(OC)c1 | inconclusive [inhibitor, single point] | 
28 | Cc1ccc(N(CC(=O)N/N=C/c2ccc(OC3CSC3)cc2)S(=O)(=O)c2ccccc2)c(C)c1 | inconclusive [inhibitor, single point] | 
29 | Cc1cccc(NC(=O)c2sc(C)nc2C)c1 |  | inactive: -5.37%
30 | COc1ccc(S(=O)(=O)N2CCCCC2)cc1NC(=O)c1cc([N+](=O)[O-])ccc1N1CCOCC1 | inconclusive [inhibitor, single point] | 
31 | OCCN1CCN(c2nc(-c3ccccc3)nc3c2oc2ccccc23)CC1 | active: 16.4 µM | 
32 | Cc1cc(-n2c(C)c3c(C)nnc(C)c3c2C)ccc1N | inconclusive [inhibitor, single point] | 
33 | COc1cccc(/C(C)=N/NC(=O)c2ccc(N(C)C)cc2)c1 | inconclusive [inhibitor, single point] | 
34 | CSc1nc(C)c(CCOC(=O)c2ccccc2)c(=O)[nH]1 |  | inconclusive: -26.4% [inhibitor]
35 | CCCC[n+]1c(/C=C/c2ccc(N(C)C)cc2)sc2ccccc21 | active: 0.1 µM | 
36 | CCCc1c(C(=O)N/N=C/c2ccc(OC)c(OCc3ccccc3)c2)nnn1-c1nonc1N | inconclusive [inhibitor, single point] | 
37 | Cc1ccc(Cl)cc1NC(=O)Nc1c(C)n(C)n(-c2ccccc2)c1=O | inactive | 
38 | CCOC(=O)CSc1nc2ccc(NC(=O)c3ccc(F)cc3)cc2s1 |  | inactive: -27.1%
39 | CN1CCN(S(=O)(=O)c2cccc(C(=O)N(Cc3nnc(-c4ccc(Cl)cc4)o3)C3CC3)c2)CC1 | inconclusive [inhibitor, single point] | 
40 | COc1ccc(C(=O)Nc2ccc(Cl)cc2C(=O)NCc2ccco2)cc1OC | inconclusive [inhibitor, single point] | 
41 | CN(C)c1ccc(/C=C/C(=O)c2ccc(O)cc2)cc1[N+](=O)[O-] | inconclusive [inhibitor, single point] | 
42 | COc1cccc(C(=O)c2sc(NC(C)C)nc2N)c1 | inconclusive [inhibitor, single point] | 
43 | Cc1csc(NC(=O)C2CCCCC2)n1 | inconclusive [inhibitor, single point] | 
44 | CC(C)N1C(=O)C(O)(C2COC(C)(C)CC2=O)c2ccccc21 (centres undefined) | active: 7.31 µM | 
